Hit rate of the full screen: of about 310,000 compounds, about 14,000 (4.5%) showed an effect of 50% or more. Effects have a minus sign here. The list shows a part of the results.
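Further: peak tail current of the secondary pulse compared with the same well before compound.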

The target of this test is human ether-à-go-go-related gene (hERG) potassium channel (human, UniProt Q12809). The test is described as follows: primary screen, population patch clamp on CHO cells stably expressing hERG.
Chain of human ether-à-go-go-related gene (hERG) potassium channel (Q12809 whole entry, looked up): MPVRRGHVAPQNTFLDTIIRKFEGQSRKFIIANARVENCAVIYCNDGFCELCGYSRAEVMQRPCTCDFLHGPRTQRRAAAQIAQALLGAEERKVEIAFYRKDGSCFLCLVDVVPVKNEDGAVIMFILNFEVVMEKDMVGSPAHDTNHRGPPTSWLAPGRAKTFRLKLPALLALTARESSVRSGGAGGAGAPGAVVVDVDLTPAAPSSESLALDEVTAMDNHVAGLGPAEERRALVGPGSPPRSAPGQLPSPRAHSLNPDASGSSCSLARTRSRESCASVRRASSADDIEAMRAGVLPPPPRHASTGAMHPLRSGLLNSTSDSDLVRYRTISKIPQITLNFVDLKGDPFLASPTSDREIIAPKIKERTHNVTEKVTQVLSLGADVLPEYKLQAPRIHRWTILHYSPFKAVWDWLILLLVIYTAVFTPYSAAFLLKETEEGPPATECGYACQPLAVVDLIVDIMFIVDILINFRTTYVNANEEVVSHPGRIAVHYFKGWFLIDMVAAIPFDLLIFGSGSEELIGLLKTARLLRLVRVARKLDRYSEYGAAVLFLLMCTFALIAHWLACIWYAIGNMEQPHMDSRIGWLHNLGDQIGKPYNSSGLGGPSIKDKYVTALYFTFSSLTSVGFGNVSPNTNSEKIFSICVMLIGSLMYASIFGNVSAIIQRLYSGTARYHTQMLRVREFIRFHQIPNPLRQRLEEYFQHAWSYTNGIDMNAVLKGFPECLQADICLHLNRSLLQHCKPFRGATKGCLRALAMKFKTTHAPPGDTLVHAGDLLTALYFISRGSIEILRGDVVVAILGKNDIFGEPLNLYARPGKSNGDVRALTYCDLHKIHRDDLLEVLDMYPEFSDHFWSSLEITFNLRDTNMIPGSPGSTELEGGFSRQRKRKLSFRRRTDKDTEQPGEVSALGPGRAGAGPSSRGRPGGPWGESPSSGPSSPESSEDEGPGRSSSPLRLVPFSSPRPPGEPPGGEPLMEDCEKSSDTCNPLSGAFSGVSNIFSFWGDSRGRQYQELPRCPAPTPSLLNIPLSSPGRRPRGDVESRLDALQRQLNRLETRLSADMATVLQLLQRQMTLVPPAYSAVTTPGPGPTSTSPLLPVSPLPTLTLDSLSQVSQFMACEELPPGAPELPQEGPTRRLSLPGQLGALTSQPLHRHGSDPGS
As to `N=c1c(C(=O)NCc2ccccc2)cc2c(=O)n3ccccc3nc2n1Cc1ccco1`, the “hERG current change (%, negative = inhibition) at 10uM” value is recorded as -76.4%. On to `COc1ccc(NC(=O)CN(C)C(=O)c2ccc3[nH]c4c(c3c2)CC(C)CC4)cc1` (stereo not shown), for which the “hERG current change (%, negative = inhibition) at 10uM” value turned out to be 7.28%. As for `CC1(C)Cc2nc3sc(C(=O)O)c(N)c3cc2CS1`, the “hERG current change (%, negative = inhibition) at 10uM” value turned out to be 29.4%. As to `COc1ccc(CC(=O)Nc2cccc(C(=O)Nc3cccc(C)c3)c2)cc1`, the “hERG current change (%, negative = inhibition) at 10uM” value is reported as -1.93%. For the compound `CCOc1ccc(OCC)c(NC(=O)CN(C)S(=O)(=O)c2cccc3nsnc23)c1`, the “hERG current change (%, negative = inhibition) at 10uM” value is recorded as -15.3%. For `Cc1ccc(CS(=O)(=O)Cc2ccc(C(=O)NCc3cccs3)o2)cc1`, the “hERG current change (%, negative = inhibition) at 10uM” value was -20.2%. On to `COc1ccc(OC(=O)c2cnc3n(c2=O)CCS3)cc1`, for which the “hERG current change (%, negative = inhibition) at 10uM” value stood at 8.8%. Next, `Brc1ccccc1C1Nc2cccc3cccc(c23)N1`: -8.96%; `COc1ccc(C(CC(=O)NCCCN2CCOCC2)NS(=O)(=O)c2ccc(C)cc2)cc1` (stereo not shown): -13.2%; `Cc1c(CN2CCN(CC(C)C)C(CCO)C2)[nH]c2ccc(Cl)cc12` (stereo not shown): -34.4%. Regarding `CSCCC(NS(=O)(=O)c1cccs1)C(=O)NCc1ccc(C)cc1` (stereo not shown), the “hERG current change (%, negative = inhibition) at 10uM” value is -6.78%.

As for `CCCCCn1nc(C)c(/C=N/NC(=O)c2ccoc2C)c1C`, the “hERG current change (%, negative = inhibition) at 10uM” value is reported as -43.8%. On to `Cc1ccnc(NC2CCCCC2)c1`, for which the “hERG current change (%, negative = inhibition) at 10uM” value came to 20.4%. For `CC(=O)NC1CSCC1OC(C)=O` (stereo not shown), the “hERG current change (%, negative = inhibition) at 10uM” value came out at 9.45%. As for `COc1ccc(CCNC(=O)CSc2ccc(-c3ccccc3)nn2)cc1`, the “hERG current change (%, negative = inhibition) at 10uM” value is recorded as -13.1%.

Take `Cc1ccc(CN2CC(C(=O)N3CC=C(c4ccccc4)CC3)CC2=O)cc1` (stereo not shown): the “hERG current change (%, negative = inhibition) at 10uM” value is -32.6%. On to `Cc1ccc(NC(=O)CSc2nnc(C)n2C2CC2)cc1S(=O)(=O)N1CCOCC1`, for which the “hERG current change (%, negative = inhibition) at 10uM” value is -11.5%. Regarding `Cc1cccc2cn[nH]c12`, the “hERG current change (%, negative = inhibition) at 10uM” value turned out to be 7.12%.

Consider `O=C(COC(=O)c1cccc(S(=O)(=O)N2CCCCC2)c1)NC1CCCCC1`, for which the “hERG current change (%, negative = inhibition) at 10uM” value is 10%. As for `CC(=O)Nc1ccc(Nc2ccccc2)cc1`, the “hERG current change (%, negative = inhibition) at 10uM” value is listed as 7.4%. In the case of `Cc1ccc(C)c(CNS(=O)(=O)c2c(C(=O)N3CCCC3)c(C)n(C)c2C)c1`, the “hERG current change (%, negative = inhibition) at 10uM” value was found to be 1.45%.

`CCc1ccc(/C=N/NC(=O)C(=O)NCCCN2CCOCC2)cc1`: the “hERG current change (%, negative = inhibition) at 10uM” value is on record as -23.6%.

On to `COc1ccc(CCn2ccc(O)c(Cc3c(F)cccc3Cl)c2=O)cc1OC`, for which the “hERG current change (%, negative = inhibition) at 10uM” value worked out at 9.71%.

Regarding `COc1ccc(Cl)cc1-n1c(N)c(C(N)=O)sc1=S`, the “hERG current change (%, negative = inhibition) at 10uM” value stood at 7.72%. `COc1ccc(-c2csc(NC(=O)c3ccccc3F)c2C(=O)O)cc1`: the “hERG current change (%, negative = inhibition) at 10uM” value is given as 24.2%. With `Cc1nc2ccccn2c1/C(O)=C1\C(=O)C(=O)N(CCN(C)C)C1c1cccnc1` (stereo not shown), the “hERG current change (%, negative = inhibition) at 10uM” value is on record as 2.34%. Next, `COc1cccc(C(=O)OCCCN(C)C)c1.Cl`: -1.4%; `CC/C(=N\O)c1ccc(O)c(OC)c1`: 8.07%.

Take `COc1ccc(-c2nnc(SCC(=O)c3ccc(O)cc3O)o2)cc1`: the “hERG current change (%, negative = inhibition) at 10uM” value is 7.26%.

For `COc1ccc(/C=C/C(=O)OCC(=O)Nc2ccc(OC)c(S(=O)(=O)N3CCCCC3)c2)cc1`, the “hERG current change (%, negative = inhibition) at 10uM” value turned out to be 2.08%.

In the case of `CC(C)(C)C(=O)Nc1cccc(OC(F)(F)C(F)Cl)c1` (stereo not shown), the “hERG current change (%, negative = inhibition) at 10uM” value was -17.8%. In the case of `C/C(N)=C(/C#N)C(=O)COC(=O)c1cccc(C)c1O`, the “hERG current change (%, negative = inhibition) at 10uM” value was determined as 22%.

Regarding `Oc1cc2c(cc1CN1CCN(c3ccccc3)CC1)CCC2`, the “hERG current change (%, negative = inhibition) at 10uM” value was -5.78%. In the case of `CC(C)(C)c1ccc(C2(C)NC(=O)N(CC(=O)NCc3cccs3)C2=O)cc1` (stereo not shown), the “hERG current change (%, negative = inhibition) at 10uM” value was found to be 9.46%. As for `Cn1c(=O)oc2cc(S(=O)(=O)NCCC(=O)NCc3ccccc3Cl)ccc21`, the “hERG current change (%, negative = inhibition) at 10uM” value turned out to be 8.46%. Turning to `CC1(C)CC(=O)C=C(c2cccnc2)C1`, the “hERG current change (%, negative = inhibition) at 10uM” value came out at 1.73%. Turning to `COC(=O)CSc1nc(-c2ccccc2)nc2ccccc12`, the “hERG current change (%, negative = inhibition) at 10uM” value is 14.3%. As for `C=CCn1c(-c2ccc(OC)c(OC)c2)n[nH]c1=S`, the “hERG current change (%, negative = inhibition) at 10uM” value came out at 18.7%. Take `COc1cc(C2C(C#N)=C(N)OC3=C2C(=O)CC(C)(C)C3)c([N+](=O)[O-])cc1OC` (stereo not shown): the “hERG current change (%, negative = inhibition) at 10uM” value is on record as 1.19%. Regarding `CCCNC(=O)c1ccc(N2CCC3(CC2)CC(c2cccc(Br)c2)=NO3)c(NC(=O)c2ccco2)c1`, the “hERG current change (%, negative = inhibition) at 10uM” value is given as -7.9%.

As to `CC(C)(C)N(NC(=O)c1ccccc1)C(=O)c1cccc(C(=O)N(NC(=O)c2ccccc2)C(C)(C)C)c1`, the “hERG current change (%, negative = inhibition) at 10uM” value was determined as 12.9%.

With `CCOc1ccc(C(=O)CCC(=O)N2CCN(c3ncccn3)CC2)cc1`, the “hERG current change (%, negative = inhibition) at 10uM” value was -19.8%. For the compound `CCOC(=O)C1=C(c2ccccc2)Nc2ncnn2C1c1ccc(OC)c(OC)c1OC` (stereo not shown), the “hERG current change (%, negative = inhibition) at 10uM” value is given as -5.55%. Next, `CN(CCC1CCOCC1)Cc1cn[nH]c1-c1ccc(-c2ccccc2)cc1`: -62.6%; `CCC(C)(C)NC(=O)COc1ccc(OCc2ccccc2)cc1`: 8.44%; `Cn1c(=O)c(C=Nc2ccccc2)c(O)c2ccccc21`: -3.84%. Regarding `O=C(CSCc1c(F)cccc1Cl)NCC1CCCO1` (stereo not shown), the “hERG current change (%, negative = inhibition) at 10uM” value is on record as -6.44%. As to `CN(C)C(=O)c1ccc(NC(=O)c2ccccc2Sc2ccccc2C#N)cc1`, the “hERG current change (%, negative = inhibition) at 10uM” value is listed as 1.57%. To `COc1cc(-c2nc(S(=O)(=O)c3ccc(Cl)cc3)c(N3CCOCC3)o2)cc(OC)c1OC` belongs -3.17%; to `COc1ccc(C(CC(=O)Nc2nccs2)C(C)C)cc1` (stereo not shown), -4.5%. As for `CC(C)CC(=O)Nc1cc(NC(=O)CC(C)C)cc(C(=O)NC(C)(C)C)c1`, the “hERG current change (%, negative = inhibition) at 10uM” value was 9.08%.

As for `CSc1nc(C)cc(NC(N)=O)n1`, the “hERG current change (%, negative = inhibition) at 10uM” value is reported as 7.02%. In the case of `CCC(=O)N1c2ccc(S(=O)(=O)CCC(=O)N3CCN(c4ccccc4)CC3)cc2CC1C` (stereo not shown), the “hERG current change (%, negative = inhibition) at 10uM” value is on record as 4.07%. As to `C=CCSc1nc(N)c(NC(=O)c2ccco2)c(=O)[nH]1`, the “hERG current change (%, negative = inhibition) at 10uM” value turned out to be 7.05%. With `CC1CCCC(C)N1C(=O)COC(=O)C1CCN(S(=O)(=O)c2ccc3c(c2)OCCO3)CC1` (stereo not shown), the “hERG current change (%, negative = inhibition) at 10uM” value was -8.5%. To `CCOC(=O)c1sc(NC(=O)CC(C)c2ccccc2)nc1C` (stereo not shown) belongs 10.3%; to `CCOC(=O)c1cn(Cc2cccc(C)c2)nn1`, -11.4%; to `COc1ccccc1Nc1nnc(SCC(=O)Nc2nc(-c3ccc(F)cc3)cs2)s1`, 37.4%.
